Source: publication PMC5745004, “HSP90C interacts with PsbO1 and facilitates its thylakoid distribution from chloroplast stroma in Arabidopsis” (PLoS ONE, 2017)

Biological target: T1, mature form HSP90C (aa. 61-780), purified (Arabidopsis, UniProt Q9SIF2 61-780)
T1 construct: Arabidopsis plastidic HSP90C, mature form, aa 61-780; source: E. coli BL21 (DE3)-pRIL, purified (Ni-NTA, TEV cleavage, Superdex 200)
T1 sequence (looked up): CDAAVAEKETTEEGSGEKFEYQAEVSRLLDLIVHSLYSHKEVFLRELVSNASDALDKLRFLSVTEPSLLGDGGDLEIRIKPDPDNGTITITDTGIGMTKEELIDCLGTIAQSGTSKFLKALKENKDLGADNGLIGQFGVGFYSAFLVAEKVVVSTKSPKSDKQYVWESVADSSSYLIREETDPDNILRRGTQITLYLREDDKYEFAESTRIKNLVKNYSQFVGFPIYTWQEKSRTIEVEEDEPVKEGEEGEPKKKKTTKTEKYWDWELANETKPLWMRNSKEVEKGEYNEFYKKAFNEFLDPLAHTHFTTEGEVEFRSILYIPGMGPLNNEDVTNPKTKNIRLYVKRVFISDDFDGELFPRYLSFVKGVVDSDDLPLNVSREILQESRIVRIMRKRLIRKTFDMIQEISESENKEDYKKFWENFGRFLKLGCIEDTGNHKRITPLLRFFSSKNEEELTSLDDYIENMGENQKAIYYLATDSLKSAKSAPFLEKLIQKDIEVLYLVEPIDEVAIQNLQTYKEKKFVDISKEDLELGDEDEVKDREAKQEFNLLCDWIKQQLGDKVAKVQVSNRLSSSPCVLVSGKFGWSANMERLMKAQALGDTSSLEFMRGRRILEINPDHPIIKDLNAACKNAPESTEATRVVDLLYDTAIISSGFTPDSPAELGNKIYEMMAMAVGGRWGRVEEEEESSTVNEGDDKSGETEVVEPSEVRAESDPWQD
Experiment: SEC; in vitro size exclusion chromatography with purified proteins; mPsbO1 or mPsbO1^T200A in presence or absence of HSP90C
Conditions: both partners purified

binding result: binds
B1: mPsbO1^T200A, purified (domain or fragment)
chain: not shown
notes: also called mutant PsbO1; source: E. coli BL21 (DE3)-pRIL, purified (Ni-NTA, TEV cleavage, Superdex 200)
